Consider 22 compounds from PubChem BioAssay AID1346428 (National Center for Advancing Translational Sciences (NCATS), 2018).

In all, about 48,000 compounds went through this assay and about 1,200 (2.5%) were called active. Inconclusive results (about 2%) are left out.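 Rule for the calls: active = activation of at least 60% and not above a set upper limit (about 1 call in 100 departs from these limits); inconclusive = activation of 40% to 60%, or above that upper limit; inactive = activation under 40%.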 This is one part of the list.

UniProt O75388, sequence (O75388 whole entry, looked up): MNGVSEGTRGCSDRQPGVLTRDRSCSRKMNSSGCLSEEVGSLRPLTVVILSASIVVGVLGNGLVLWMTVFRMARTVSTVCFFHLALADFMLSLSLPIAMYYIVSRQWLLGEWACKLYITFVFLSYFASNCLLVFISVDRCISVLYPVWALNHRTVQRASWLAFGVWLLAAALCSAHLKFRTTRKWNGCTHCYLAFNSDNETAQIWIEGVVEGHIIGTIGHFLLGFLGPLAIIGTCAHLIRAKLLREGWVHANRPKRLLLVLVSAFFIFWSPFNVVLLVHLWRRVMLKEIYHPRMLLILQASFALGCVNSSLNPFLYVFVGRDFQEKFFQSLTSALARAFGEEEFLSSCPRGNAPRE

This assay deals with Probable G-protein coupled receptor 32 (Homo sapiens) (UniProt O75388). The experiment in a line: qHTS for Agonists of Human Resolvin D1 Receptor DRV1. Note: 0% is about no effect. Conditions: CHO-K1 GPR32 beta-arrestin PathHunter luminescence, 90 min; at 76.9 µM; active compounds read high; zero percent set by DMSO-only wells. The gist of the method:
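CHO-K1 cells stably expressing ProLink-tagged GPR32 and Enzyme Activator-tagged beta-arrestin were seeded at 2,500 cells/well overnight, exposed to compounds for 90 min at 37 °C, then read by beta-Gal complementation chemiluminescence after 1 h detection reagent.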
(In general: Quantitative high-throughput screening tests each substance at several concentrations.)
With `CCCN1C(=O)C2(c3ccccc31)c1c(oc3ccc(F)cc3c1=O)C(=O)N2CCCOC(C)C` (configuration not stated), the activation is inactive: 7.48%. The same measure for `Cc1oc2ncnc(N3CCCCC3)c2c1C(=O)N1CCN(c2cccc(Cl)c2)CC1`: inactive: -7.09%; for `CN(C(=O)CSc1nnc(-c2ccccc2F)o1)C1CCCCC1`: inactive: 30.1%.

`CC(C)(C)c1ccc(OCC(=O)Nc2ccc(S(=O)(=O)Nc3ncccn3)cc2)cc1`: the activation is active: 78.6%. For `CCOC(=O)c1cccc(NC(=O)c2cc3c(-c4cccc(OC)c4)nn(C)c3s2)c1`, the activation is inactive: -8.3%. As for `Cc1nc2c(c(C)c1CCC(=O)NCc1ccccc1)c(=O)n(C)c(=O)n2C`, the activation was inactive: 0.522%. `COCCCNC(=O)CSc1nc2c(sc3ccccc32)c(=O)n1CCc1ccccc1`: the activation is inactive: 7.62%.

Take `COc1cc(NC(=O)CSc2nc3ccccc3nc2Cc2ccc(Cl)cc2)cc(OC)c1`: the activation was inactive: -21.2%. With `Cc1cccc(NC(=O)C2CCC(CNS(=O)(=O)c3csc(C(N)=O)c3)CC2)c1C` (configuration not stated), the activation was inactive: 7.23%. For the compound `Cc1ccc(S(=O)(=O)c2nc(S(C)(=O)=O)sc2N(C)Cc2ccccc2)cc1`, the activation was inactive: -12.5%. Turning to `Cc1nn2c(=O)cc(COc3ccc(/C=C(\C#N)C(=O)Nc4ccc(F)cc4)cc3)nc2s1`, the activation is inactive: 0.214%. For `N#Cc1c(N)n(-c2cccc(Cl)c2)c2nc3ccccc3nc12`, the activation was inactive: -5.75%.

For `COc1cccc(Nc2cc(C)nc3nc(-c4ccc(Cl)cc4)nn23)c1`, the activation was inactive: 3.24%.

`CCOC(=O)COc1ccccc1C1C(C(=O)OC)=C(C)NC2=C1C(=O)c1ccccc12` (configuration not stated): the activation is inactive: -74.6%. Take `O=C(COc1ccccc1Cl)Nc1nnc(S(=O)(=O)N2CCCCCC2)s1`: the activation is inactive: 5.44%. Turning to `O=C(NCCCc1nc2ccccc2n1Cc1c(F)cccc1Cl)C1CCCCC1`, the activation was inactive: -1.64%. In the case of `COc1ccc(NCc2cc3cc4c(cc3n(CC(=O)Nc3cc(C)cc(C)c3)c2=O)OCO4)cc1`, the activation is inactive: -34.2%. For `Cc1nn(C)c2c1c(-c1ccccc1)cc(=O)n2CC(=O)Nc1ccccc1C(F)(F)F`, the activation is inactive: -7.13%. The same measure for `CCC(C)n1ncn(-c2ccc(N3CCN(c4ccc(OC[C@H]5CO[C@](Cn6cncn6)(c6ccc(Cl)cc6Cl)O5)cc4)CC3)cc2)c1=O` (some centres not stated): inactive: 8.83%.

Take `Cc1ccc(Cl)cc1NC(=O)Cc1ccc(-n2c(C)nc3cccnc32)cc1`: the activation is inactive: 3.03%. For `CCOc1ccc(-n2c(=O)c3c(C)c(C)sc3n(CC(=O)N(CC)Cc3ccccc3)c2=O)cc1`, the activation was inactive: 39.8%. Take `Cc1cn2c(=O)cc(COc3ccc(Cl)cc3)nc2s1`: the activation was inactive: -6.08%.
